Test results: the supplement of paper PMC11417369
± gives the standard deviation of the averaged measurements. Some of the results follow.

test system: PfAP2-EXP AP2 domain (GST-tagged); experiment: gcPBM binding intensity (ln(normalized median fluorescence intensity)); higher = stronger DNA binding
Summary of the method: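 An Agilent 4 × 180k array carrying primer-extended double-stranded 36-bp intergenic genomic probes and negative controls received GST-tagged P. falciparum DNA-binding domains expressed in E. coli, about 25 μg on average, for 1 h. The binding buffer contained 1× PBS, 1% milk, 0.2 mg/ml BSA, 0.5% salmon testes DNA and 0.03% Triton X-100. Binding intensity is the top Masliner-normalised natural-log median intensity across replicate spots of either probe orientation, read after Alexa488 anti-GST antibody staining and a 488 nm scan.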

Row | Sequence | gcPBM binding intensity (ln)
1 | TATTTTTTGAAAAGTTCACACATCCAACTCGAGTTG [CACACA_site4412] | 8.62 ± 0.46
2 | GTCATATATTTATGTACACACATATATATATTTATA [CACACA_site4911] | 8.48 ± 0.3
3 | ATATATATTTTATATTGTACTTATTATTTTTAGGGC [XGTACX_site723] | 8.42 ± 0.33
4 | AGGATATATATATTCACACACACATGGAAATATATA [CACACA_site383] | 8.6 ± 0.42
5 | TATGAATATCTATACACACACATATAAATACACGCT [CACACA_site6853] | 8.52 ± 0.36
6 | TATCTTTTTTTTAATACACACAAATATATGAAAGTA [CACACA_site4161] | 8.35 ± 0.35
7 | AATTCTGGCAAAATAACACACACATATATTTTATAT [CACACA_site9064] | 8.53 ± 0.59
8 | GTTATAATTGAACTAGTGCATAAATATATTTTAATT [GTGCAC_site9851] | 8.71 ± 0.23
9 | ATAAAGGAATTTTATACACACAACATATATATATAT [CACACA_site2861] | 10.1 ± 0.32
10 | TTTTTTTTTACTAACTGTACTAAAGAAAAAAAAGGG [XGTACX_site3519] | 8.68 ± 0.37
11 | GGGGGGGGAGGGTGAATACACACGTAATAATCATAA [CACACA_site1716] | 10.8 ± 0.15
12 | ATATAAACACTGAATGCATGCACATATATATATATA [TGCATGCA_site940] | 10.45 ± 0.049
13 | CGTATTATTATATAAACACACAAGGGGGCATGTATA [CACACA_site745] | 9.83 ± 0.042
14 | ATGTGTATATGTGTGGGTACTTAATTTTTTTCTTTA [XGTACX_site5351] | 8.88 ± 0.48
15 | ATTTGTATATACATATGTACACATGTAGGCTCATAA [XGTACX_site1709] | 8.72 ± 0.38
16 | TTTCGTAAACTTTATGCACACACATATACATATTTC [CACACA_site8146] | 8.96 ± 0.13
17 | TATATTAAAATAATCACACACATCAATTAATGGTAA [CACACA_site1234] | 8.41 ± 0.42
18 | AGTATAACTTTTGCGCGTACACACATTTATCCTCTT [XGTACX_site429] | 9.7 ± 0.42
19 | TTTGAATACTGAATGGTGCAAATTGTTCTCCCCATG | 8.63 ± 0.16
20 | TGTATATGGTTTGTGCAAAAATTTATTAATGTGTAA [TGCATGCA_negctrl_site374] | 8.64 ± 0.4
21 | TACAAATGCGTATGTCAATATATGGAGAAATAAATA [TGCATGCA_negctrl_site290] | 8.62 ± 0.49
22 | TATAATAATATTTACACACGCATATGTTATATATAT [CACACA_site1477] | 8.56 ± 0.4
23 | AATTATGTGTGTCAATGTACACGATTTACATAATAT [XGTACX_site5150] | 8.52 ± 0.38

Row | Sequence | gcPBM binding intensity (ln)
24 | TGAAAAATATAAGGTTGTACTTACATCGGGAATAAT [XGTACX_site4701] | 8.72 ± 0.35
25 | AATATATGGTTTCTTGATATTAAATTCAATTTAATG [CACACA_negctrl_site69] | 8.35 ± 0.5
26 | ATAAATGAACAAGTGGCACACACACCGTATAACTAA [CACACA_site9047] | 8.76 ± 0.6
27 | ATCCGTGGGTGAAATACACACATGATAATGTGAATG [CACACA_site4662] | 8.32 ± 0.52
28 | AAAAAAAAAAAAAAAAGTACATATAATAAATAATGA [XGTACX_site7931] | 8.39 ± 0.42
29 | TATATCTTAATATTTACACACATGCGCACCCATAAA [CACACA_site5349] | 9.12 ± 0.092
30 | AATCTTTGTAATAAAAGTACATTAATTTTATTAATA [XGTACX_site8325] | 8.09 ± 0.16
31 | ACACATACAACGTGGTGTACAAATAATTATAATCAA [XGTACX_site2287] | 8.61 ± 0.42
32 | TTTTAAATACTTTATTGTACATTATATATATATATA [XGTACX_site7021] | 10 ± 0.2
33 | TAAGTATATATATTTACACACATTTGTTTTTTTTTA [CACACA_site3784] | 8.43 ± 0.38
34 | TAGTTTTTTATATATTGTACAAATGATATATTATAT [XGTACX_site1002] | 8.54 ± 0.28
35 | TTTTGTTATTTTTGTATGCACTACATATTATTATAT | 9.04 ± 0.17
36 | TATTTTTAAACAAAACTGTATTTATTTTTTAAAATT [CACACA_negctrl_site1449] | 8.11 ± 0.35
37 | AAACTTTTTTTAAAAACACACATATAGATTTATATA [CACACA_site7842] | 8.32 ± 0.42
38 | ATATATATATATAATTGTACATTTTTATGTTTTATA [XGTACX_site4560] | 9.88 ± 0.39
39 | GAAATTAAAAAATTTATGCACACTTTAAAAAAAAAA [CACACA_site3769] | 8.29 ± 0.32
40 | TTCATTAAAATTATTACACACAGTTCTTCAACCAAA [CACACA_site3504] | 8.36 ± 0.41
41 | ATATGTAGTTTTTATTGTACGTGTAGAAGAAATAAT [XGTACX_site6608] | 9.03 ± 0.41
42 | TTTTAAACAGGACACACACACATATAGATTTATATA [CACACA_site6560] | 8.69 ± 0.4
43 | AATGATTTTCAATCGAAATGAAACTTAGAAGATATA [CACACA_negctrl_site1475] | 8.48 ± 0.3
44 | TATAACCATATATACACACACATATAAATATAAATA [CACACA_site7089] | 8.56 ± 0.48
45 | TATATTTTAATTTGAAGTACTAATATTTATTTATAT [XGTACX_site7458] | 8.18 ± 0.28
46 | ATATATATATATTTCGTGCACTGATAATATTATTTT | 9.86 ± 0.085

Row | Sequence | gcPBM binding intensity (ln)
47 | AAGGTGGAAACAATTACACACACACTAAAAAAAAAA [CACACA_site7493] | 8.72 ± 0.5
48 | ATGAAAAAAAATAAAAAATATATATATATATATATA [CACACA_negctrl_site236] | 10.1 ± 0.34
49 | GAACGAAATAAGTGTGTGCACATGTAACCACAAATC [GTGCAC_site9829] | 9.23 ± 0.31
50 | AATTAATATATAAATAATAAAAAAAAATATATAAAC [XGTACX_negctrl_site280] | 8.74 ± 0.4
51 | CAATATTTTCATAGATGTACTTTGGACTTATTATAT [XGTACX_site4849] | 8.34 ± 0.38
52 | TAAATAAAAGATACGAGTACGTATGATGTTAACCTC [XGTACX_site8840] | 8.53 ± 0.4
53 | GTATATAGTATGTAGAGTACTAATTTCCATATGTTC [XGTACX_site7816] | 8.53 ± 0.31
54 | ATTTATATATAGGTGTGTCCACAAATAGTATGTAAA [XGTACX_site2916] | 8.88 ± 0.35
55 | TTTAAAATAACCAAAAACAAAAAGAAACACAAATGT [GTGCAC_negctrl_site705] | 8.77 ± 0.41
56 | AAAAAAAAAATTTACTGTACACATTTGGGATACTCA [XGTACX_site5191] | 8.29 ± 0.25
57 | TTTCAAATGGAATGTGTGCACATAAATGTAAATAAA | 8.97 ± 0.31
58 | GATCAAATAGAAAATACATGCAATGTGTGAAATAAC [TGCATGCA_site835] | 9.59 ± 0.18
59 | TATAAGTTGATATATACACACATATATAAATATGTA [CACACA_site7526] | 8.24 ± 0.41
60 | TATTTATAAAAATATACACACATACAAATATGCATA [CACACA_site4555] | 8.4 ± 0.27
61 | CTTATTTAATGTATCACACACGAGAATAAAAAATAA [CACACA_site3020] | 8.58 ± 0.42
62 | ATGGTTTTCAGAAAAACATGCATACAATAATAAAAA [TGCATGCA_site815] | 9.08 ± 0.41
63 | AATAAAATGCAATACATTTTGTTATATAATGTTGTT [CACACA_negctrl_site1525] | 8.26 ± 0.42
64 | CACAATGTAGTGTATAAATACAATAAAAGGTTGTAT [CACACA_negctrl_site700] | 8.54 ± 0.38
65 | ATTTTTTTTATTATTACACACATATAATAAAAAAAT [CACACA_site1802] | 8.39 ± 0.67
66 | ATTTTTTTTTTCTTTTTTTTTTGTTTTTCTCCTTTT [CACACA_negctrl_site1182] | 8.37 ± 0.59
67 | TAAAGTGTAAAATTCACACACATATATATATATATA [CACACA_site4883] | 10.1 ± 0.36
68 | ATATTGTAAGTAAACACACACACATATATCTGTATA [CACACA_site4541] | 8.48 ± 0.51
69 | GTATAATTTATTGAACGTACACATATATATATGTAT [XGTACX_site1395] | 8.61 ± 0.26

Row | Sequence | gcPBM binding intensity (ln)
70 | TCTTGTCTACCTTGTATTTAATATTTACATATATAA [TGCATGCA_negctrl_site320] | 8.95 ± 0.4
71 | TATTTCTTATTACATACACACATATACATAGATGAC [CACACA_site5729] | 8.69 ± 0.45
72 | TTCTTGTATATATTTTGTACATATATACCATTTTAG [XGTACX_site2409] | 8.88 ± 0.38
73 | TATATGTTTTTATGTACACACTTTTAACCTAAGAAA [CACACA_site4769] | 8.8 ± 0.092
74 | TATTTGTAAAAATTGTGTACTTAGAAAATTCCAAAA [XGTACX_site6007] | 8.1 ± 0.099
75 | ATCATTCCACTTTTCACACATATCTCTATTTCTATC [CACACA_site4723] | 9.14 ± 0.52
76 | TGGAGGTCAGTTCACAGTACCCAGTAACTCTACGGA [XGTACX_site2549] | 8.46 ± 0.47
77 | AAAAAAAATAAAATAATAAAAATTATGAATATATAT [CACACA_negctrl_site280] | 8.37 ± 0.29
78 | AAATGTATAGGAATAATAATAAAAAAAAAAAAAAAT [CACACA_negctrl_site1793] | 8.39 ± 0.46
79 | ATAGGTAATAATAATACACACGGTGAAATATAGATG [CACACA_site9336] | 8.88 ± 0.47
80 | CAGTTTACTAATATTGCACACGAATATGAAAAAGAG [CACACA_site8941] | 9.04 ± 0.15
81 | TTTTTCACACTTCAAAAGTGTCAACCTTCTATTCTC [TGCATGCA_negctrl_site489] | 8.65 ± 0.42
82 | TTTTTTTTTCAAGAGGTGCGTGTATTTTAACAAAAA | 8.59
83 | AAAAAAAATTATGAAGTGCATTAGTGAATTTGATTG | 8.82 ± 0.18
84 | TTATCATTTGCCATTGTGCACTTATATGCTCACATT | 9.23 ± 0.29
85 | TTGTCTACAAAAATGTGCTTCTAATCATACGACTTG [CACACA_negctrl_site46] | 8.24 ± 0.38
86 | TACATATATTATTGCACACATATAAAATACCCCCAA [CACACA_site3895] | 9.55 ± 0.52
87 | GTAAAATTTACATAGAGTACTTATATTTTTTTCTGC [XGTACX_site3414] | 8.35 ± 0.42
88 | CACAAATATACAAATACACACAAATATACAAATACA [CACACA_site2385] | 8.7 ± 0.41
89 | ACATATTAAATATGAGTGCAATATATATATATATAA | 8.8 ± 0.057
90 | TATTATATCTTTTCAAGTACACATAACATACTTATT [XGTACX_site1081] | 8.56 ± 0.38
